Assay results: publication PMC3329507, “GalNAc/Gal-Binding Rhizoctonia solani Agglutinin Has Antiproliferative Activity in Drosophila melanogaster S2 Cells via MAPK and JAK/STAT Signaling” (PLoS ONE, 2012)

Target: T1, Rhizoctonia solani agglutinin (RSA) (Rhizoctonia solani, UniProt L8WGI4)
T1 construct: gene AG1IA_08901
Conditions: 0.7 µM RSA pre-incubated 1 h with 100 mM GalNAc (Figure 2 legend prints 100 µM), then S2 cells 24 h, 27 °C; competitive with cell-surface glycans; indirect read-out

With `CC(=O)N[C@H]1C(O)O[C@H](CO)[C@H](O)[C@@H]1O` (stereo partly shown) [N-acetylgalactosamine] the “% reduction of antiproliferative activity at 100 mM” value was ~ 70%.
